The values below come from PMC4336329 (PLoS ONE, 2015).

Among all 310,000 compounds or so, about 2,200 (0.71%) showed an effect of 50% or more. The effect is printed as a negative number. Some of the results follow.

For the assay, the target named is human ether-à-go-go-related gene (hERG) potassium channel (human, UniProt Q12809). Briefly: primary screen, population patch clamp on CHO cells stably expressing hERG.
human ether-à-go-go-related gene (hERG) potassium channel, sequence (Q12809 whole entry, looked up): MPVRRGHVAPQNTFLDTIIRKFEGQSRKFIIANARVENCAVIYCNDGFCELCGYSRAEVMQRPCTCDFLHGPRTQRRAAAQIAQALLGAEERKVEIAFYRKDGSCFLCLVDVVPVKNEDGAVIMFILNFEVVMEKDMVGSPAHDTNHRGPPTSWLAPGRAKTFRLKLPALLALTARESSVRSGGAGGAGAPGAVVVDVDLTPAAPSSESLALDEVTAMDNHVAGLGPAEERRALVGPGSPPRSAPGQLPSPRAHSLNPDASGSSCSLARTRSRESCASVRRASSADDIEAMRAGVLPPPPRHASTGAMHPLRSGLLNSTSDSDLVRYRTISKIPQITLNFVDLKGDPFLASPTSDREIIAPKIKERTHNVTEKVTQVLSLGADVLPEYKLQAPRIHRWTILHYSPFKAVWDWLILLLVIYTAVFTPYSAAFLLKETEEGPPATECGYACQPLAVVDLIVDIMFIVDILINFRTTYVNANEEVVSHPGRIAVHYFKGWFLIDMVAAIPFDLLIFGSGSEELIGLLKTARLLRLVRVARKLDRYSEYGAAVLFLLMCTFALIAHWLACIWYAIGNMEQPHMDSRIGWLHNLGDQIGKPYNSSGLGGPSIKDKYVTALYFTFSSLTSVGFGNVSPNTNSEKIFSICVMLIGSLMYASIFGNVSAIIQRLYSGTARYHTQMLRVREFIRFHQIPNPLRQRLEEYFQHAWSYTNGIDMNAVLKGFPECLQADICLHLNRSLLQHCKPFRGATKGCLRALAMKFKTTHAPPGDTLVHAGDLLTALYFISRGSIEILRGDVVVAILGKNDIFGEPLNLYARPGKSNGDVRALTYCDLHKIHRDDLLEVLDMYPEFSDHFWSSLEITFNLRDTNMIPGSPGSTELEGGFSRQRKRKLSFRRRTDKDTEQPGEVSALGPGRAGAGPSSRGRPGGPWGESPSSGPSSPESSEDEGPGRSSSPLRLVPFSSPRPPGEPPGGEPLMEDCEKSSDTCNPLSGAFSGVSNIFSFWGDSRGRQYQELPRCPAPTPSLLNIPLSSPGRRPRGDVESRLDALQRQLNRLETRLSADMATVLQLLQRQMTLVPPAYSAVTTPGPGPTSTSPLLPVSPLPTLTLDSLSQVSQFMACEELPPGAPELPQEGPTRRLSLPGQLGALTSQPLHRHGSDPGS
`Cc1nn(C)c(C)c1CNC(=O)c1cc2n(n1)C(C(F)(F)F)CC(c1cccs1)N2` (stereo not drawn): the “hERG current change (%, negative = inhibition) at 1uM” value was 15%.
On to `Cn1c(SCC(=O)NCc2ccc(F)cc2)nc2ccccc21`, for which the “hERG current change (%, negative = inhibition) at 1uM” value is recorded as -1.34%.
On to `CCC1OC(=O)C(C)C(OC2C[C@@](C)(OC)C(O)C(C)O2)C(C)C(O[C@@H]2OC(C)CC(N(C)C)C2O)[C@](C)(O)CC(C)C(=NOCOCCOC)C(C)C(O)[C@]1(C)O` (stereo partly drawn), for which the “hERG current change (%, negative = inhibition) at 1uM” value worked out at 16.5%.
With `O=C(c1ccc(F)cc1)c1cc2ccccc2o1`, the “hERG current change (%, negative = inhibition) at 1uM” value came out at 6.63%.
The figure for `Cc1ccc(C(=O)Nc2c3c(nn2C(C)(C)C)CS(=O)(=O)C3)cc1C` is 1.78%; for `COc1ccc(C(=O)NCCN2C(=O)S/C(=C\c3cccnc3)C2=O)cc1[N+](=O)[O-]` it is -46.6%.
The same measure for `CCn1cc(C(=O)Nc2ccc(OC)c(S(=O)(=O)N3CCCCC3)c2)c(=O)c2ccc(C)nc21`: 6.44%; for `O=C1C2=C(Nc3ccccc3SC2c2ccco2)c2ccccc21` (stereo not drawn): 3.56%.
The same measure for `O=C(c1cc2ccccc2o1)N1CCN(S(=O)(=O)c2ccc(Cl)s2)CC1`: 15.8%; for `O=C(N/N=C/c1ccc([N+](=O)[O-])cc1)C(=O)N1CCCC1`: 18.5%; for `COCC1CCN(C(=O)c2cc(COc3cncc(Cl)c3)on2)C1` (stereo not drawn): 17.5%.
In the case of `CC(C)Cn1c(=O)c2ccccc2n2c(CCC(=O)O)nnc12`, the “hERG current change (%, negative = inhibition) at 1uM” value is reported as 17.9%.
The figure for `COc1ccc(-n2nnnc2S(=O)(=O)CC(=O)N2CCCCC2)cc1` is 3.41%.
With `CCC(=NCc1cccnc1)c1c(O)n(C2CCCCC2)c(=O)[nH]c1=O`, the “hERG current change (%, negative = inhibition) at 1uM” value was -23.6%.
The same measure for `CCOc1ccc(NC(=O)CSc2nc3[nH]ncc3c(=O)n2-c2ccccc2OC)cc1`: 12.4%.
With `CN(C)c1nnnn1-c1ccc(OC(F)(F)F)cc1`, the “hERG current change (%, negative = inhibition) at 1uM” value came out at 14.5%.
The same measure for `CCOCC(=O)Nc1cccc(-c2nc3cccnc3s2)c1C`: 7.32%.
The figure for `Cc1cc(C(=O)N/N=C/C=C/c2ccccc2[N+](=O)[O-])c(C)o1` is -5.64%; for `COC(=O)C1=C(C)OC(N)=C(C#N)C1c1ccccc1F` (stereo not drawn) it is 1.13%; for `O=C(Nc1ccccc1)c1ccc(NCCN2CCOCC2)c(S(=O)(=O)N2CCOCC2)c1` it is 5.62%.
The figure for `Cn1c(=O)n(Cc2ccccc2)c(=O)c2c1nc1n2CCS1` is 11.2%.
